Reference: paper PMC8874776
Results are given in words; binding and its absence hold for the method and conditions named. Some binding calls cover weakened binding; strength is not graded here. Sequences can lack the tags named with a protein.

Sequences of proteins named here, by UniProt entry; tags and fusion partners are left off.
UniProt Q9C518: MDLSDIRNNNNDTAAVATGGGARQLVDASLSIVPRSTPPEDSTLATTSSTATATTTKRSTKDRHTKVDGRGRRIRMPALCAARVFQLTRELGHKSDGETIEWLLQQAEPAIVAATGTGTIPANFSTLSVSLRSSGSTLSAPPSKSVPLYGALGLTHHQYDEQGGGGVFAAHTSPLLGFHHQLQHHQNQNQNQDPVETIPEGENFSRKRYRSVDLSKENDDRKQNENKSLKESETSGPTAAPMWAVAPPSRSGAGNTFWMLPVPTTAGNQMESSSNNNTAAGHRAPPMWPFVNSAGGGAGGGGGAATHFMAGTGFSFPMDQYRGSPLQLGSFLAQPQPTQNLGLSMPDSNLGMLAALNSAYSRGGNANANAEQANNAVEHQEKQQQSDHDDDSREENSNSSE

Target: PRU2 (PHOSPHATE RESPONSE UBIQUITIN E3 LIGASE 2), full length, in the bait vector pGBKT7 (BD) (Arabidopsis thaliana) (UniProt Q6NQG7)
Test: two-hybrid; pairwise test: preys in pGADT7 co-transformed with pGBKT7-PRU2 into yeast strain AH109, SD/-Leu/-Trp/-His medium

binding: binds
Substance: full-length TCP8 in the vector pGADT7 (AD) (from UniProt Q9C518 1-401)
